In PubChem BioAssay (NCATS):
Inconclusive results, whose numbers are uncertain, are shown with a selection of clear calls. No potency is given beside an inconclusive call; the fits are too rough. Calls of active or inactive are those of the source. Calls follow the shape of the dose curve; as a rule, active = well fitted inhibition curve with a large enough effect; inconclusive = small, poorly fitted or top-dose-only effect; inactive = no such curve, though single readings can be large or run the other way. Bridge positions count the residues as written; N and C are the ends. Square brackets hold non-standard residues; d marks the D form. Peptide text beside a SMILES is read from it. * marks the point of attachment. ξ: configuration not given here. Octanoyl(6-Me) = CCC(C)CCCCC(=O)*; ξThr(3R) = C[C@@H](O)C(N)C(=O)O; dDab = NCC[C@@H](N)C(=O)O; Dab = NCC[C@H](N)C(=O)O

assay: qHTS Screen of the MIPE 4.0 Collection Against Ewings Sarcoma (RDES) (AID 1259252); conditions: RD-ES Ewing sarcoma viability, CellTiter-Glo, 48 h; series mostly up to 45.8 µM; also: nearly all actives have a fitted effect of over 35% in size
Excerpt: There is a large unmet medical need for treatments for Ewing sarcoma, a pediatric sarcoma. We sought to identify compounds that inhibited Ewing sarcoma cells in vitro with the goal to then test promising drugs in two drug combinations in vitro to look for synergistic drug combinations. Promising combinations would then proceed to additional validation, including in vivo testing.
Using the NCATS developed oncology compound library called the Mechanism of Interrogation Plate (MIPE), four Ewing sarcoma cell lines were evaluated (TC32, TC71, RDES, EW8). Compounds, in a 12-point titration series, were incubated with cells for 48 hours and the read out was cell viability (CellTiter-Glo from Promega). These initial experiments were used to select appropriate concentrations of each single agent for subsequent two-drug matrix combinations such that the concentrations in the matrices would span both activity and non-activity.
Cells, in the log phase of growth, were seeded in 5 uL of RPMI plus 5% FBS, […] L-glutamine, 100 U/ml penicillin and 100 ug/ml streptomycin into 1536-well solid-bottom white tissue culture treated Greiner Bio One Plates (789173-F) using a MultiDrop Combi (Thermofisher Scientific) dispenser and a small sterile cassette. One column was media alone to be used as a :"no cells" control. The plates were then covered with sterilized stainless steel gasketed lids from Kalypsys. After allowing cells to attach for 4 hours, 23 nL of test compound or control (negative control DMSO and positive control 9.2 uM Bortezomib-final) were added from a 1536-well polypropylene compound source plate to each well using a 1536 head pin tool from Kalypsys. Cells were then incubated for 48 hours at 37C, 95% relative humidity and 5% CO2. After 48 hours, plates were removed from the incubator and 3 uL of CellTiter-Glo (Promega) was added using an Aurora Flying Reagent Dispenser Bioraptor. Plates were incubated at room temperature for 10 minutes prior to reading the luminescence on the Viewlux (PerkinElmer). The relative luciferase units are used to calculate the percent activity using the activity of DMSO in the cells and no cells columns for normalization of no inhibition and full inhibition respectively.
Potency is read from the fitted curve at half-maximal effect; tags tell the direction and shape of the fitted curve.

| Compound | Potency |
| --- | --- |
| Cc1cnc(C(=O)O)c[n+]1[O-] | inconclusive [inhibitor, single point] |
| C[C@]12CCC3c4ccc(O)cc4CCC3C1CCC2=O (stereo not given in full) | inconclusive [inhibitor, full curve] |
| COc1ccc(-c2nc(N3CCOCC3)c3sc(CN(C)c4ncc(C(=O)NO)cn4)cc3n2)cn1 | inconclusive [inhibitor, full curve] |
| COCCCOc1cc(C[C@@H](C[C@H](N)[C@@H](O)C[C@H](C(=O)NCC(C)(C)C(N)=O)C(C)C)C(C)C)ccc1OC | inactive |
| CC(C)n1c(C=C[C@H](O)C[C@H](O)CC(=O)O)c(-c2ccc(F)cc2)c2ccccc21 | inconclusive [inhibitor, partial curve] |
| CCCOc1ccc2nc(NC(=O)OC)[nH]c2c1 | inconclusive [inhibitor, full curve, poor fit] |
| O=C(Nc1cccc(Br)c1)c1cccc(S(=O)(=O)N2CCCCCC2)c1 | inconclusive [inhibitor, single point] |
| CC(=O)SCC(Cc1ccccc1)C(=O)NCC(=O)OCc1ccccc1 (stereo not given) | active: 0.59 µM |
| Cc1nc(C(=O)NCC(=O)O)c(O)c2ccc(Oc3ccccc3)cc12 | inconclusive [inhibitor, partial curve, poor fit] |
| CCC(C)CCCCC(=O)N[C@@H](CCN)C(=O)NC(C(=O)N[C@H](CCN)C(=O)N[C@@H]1CCNC(=O)C([C@@H](C)O)NC(=O)[C@@H](CCN)NC(=O)[C@@H](CCN)NC(=O)[C@@H](CC(C)C)NC(=O)[C@H](Cc2ccccc2)NC(=O)[C@H](CCN)NC1=O)[C@@H](C)O (stereo partly drawn) ({Octanoyl(6-Me)}-[Dab][ξThr(3R)][dDab][dDab][Dab]F[dL][dDab][dDab][ξThr(3R)]; lactam 4-C) | inactive |
| C#C[C@]1(O)CC[C@H]2[C@H]3CCc4cc(OC)ccc4[C@H]3CC[C@@]21C | active: 20.9 µM |
| CCOc1ccc(Nc2nc(-c3c(C)nc4ccccn34)cs2)cc1 | inconclusive [inhibitor, full curve] |
| CC[C@H]1OC(=O)[C@H](C)C(=O)[C@H](C)[C@@H](O[C@H]2O[C@H](C)C[C@H](N(C)C)[C@@H]2O)[C@](C)(OC)C[C@@H](C)C(=O)[C@H](C)[C@H]2N(CCCCn3cnc(-c4cccnc4)c3)C(=O)O[C@]12C | inconclusive [inhibitor, single point] |
| N#CC(c1ccnc(NCCc2cccnc2)n1)c1nc2ccccc2s1 (stereo not given) | active: 23.5 µM |
| COc1cc([C@H]2Oc3cc([C@H]4Oc5cc(O)cc(O)c5C(=O)[C@H]4O)ccc3O[C@H]2CO)ccc1O | inconclusive [inhibitor, partial curve] |
| COC(=O)C[C@](O)(CCCC(C)(C)O)C(=O)O[C@@H]1C(OC)=C[C@]23CCCN2CCc2cc4c(cc2[C@H]13)OCO4 | inactive |
| CC[C@@]1(O)C(=O)OCc2c1cc1n(c2=O)Cc2cc3cc(O)ccc3nc2-1 | active: 0.0132 µM |
| CN(C[C@@H]1COCCO1)S(=O)(=O)Nc1ccc2ccc3ncc(-c4cnn(C)c4)cc3c(=O)c2c1 | inconclusive [inhibitor, full curve] |
| COCCOC(=O)C1=C(C)NC2=C(C(=O)CC(c3ccccc3OC)C2)C1c1cccc(O)c1 (stereo not given) | inconclusive [inhibitor, partial curve] |
| Cc1onc(-c2ccccc2)c1C(=O)N[C@@H]1C(=O)N2[C@@H](C(=O)O)C(C)(C)S[C@@H]12 | inactive |

| Compound | Potency |
| --- | --- |
| NC(=O)c1cnc(-c2ccc(C3(N)CCC3)cc2)c(-c2ccccc2)c1 | inconclusive [inhibitor, partial curve, poor fit] |
| N[C@@H](Cc1cc(I)c(Oc2cc(I)c(O)c(I)c2)c(I)c1)C(=O)O | inactive |
| CN(C)C(=N)N=C(N)N | inactive |
| CS(=O)(=O)c1ccc(C2=C(c3ccccc3)C(=O)OC2)cc1 | inactive |
| Cc1ccc(C(=O)N(CCCN)[C@@H](c2oc3cc(Cl)ccc3c(=O)c2Cc2ccccc2)C(C)C)cc1 | inactive |
| CCOC(=O)c1ccc(OC(=O)CCCCCN=C(N)N)cc1 | inactive |
| OCCN(CCO)c1nc(N2CCCCC2)c2nc(N(CCO)CCO)nc(N3CCCCC3)c2n1 | inconclusive [inhibitor, partial curve] |
| CN[C@H](CC(C)C)C(=O)N[C@H]1C(=O)N[C@@H](CC(N)=O)C(=O)N[C@@H]2C(=O)N[C@H]3C(=O)N[C@H](C(=O)N[C@H](C(=O)O)c4cc(O)cc(O)c4-c4cc3ccc4O)[C@H](O)c3ccc(c(Cl)c3)Oc3cc2cc(c3O[C@@H]2O[C@H](CO)[C@@H](O)[C@H](O)[C@@H]2O[C@H]2C[C@](C)(N)[C@H](O)[C@H](C)O2)Oc2ccc(cc2Cl)[C@H]1O | inactive |
| COCCOc1nc(-c2ccc(Cl)c(Cl)c2)n(-c2ccc(NC(=O)CCl)cc2)n1 | inconclusive [inhibitor, single point] |
| c1coc(CNc2ncnc3nc[nH]c23)c1 | inactive |
| OCCCNc1cc(-c2ccnc(Nc3cccc(Cl)c3)n2)ccn1 | active: 0.166 µM |
| CCCNC(=O)Nc1ccc(Oc2ncnc3cc(OC)c(OC)cc23)cc1Cl | inactive |
| Nc1ncnc2nc(-c3ccc(N4CCOCC4)nc3)cc(-c3cccc(Br)c3)c12 | inconclusive [inhibitor, single point] |
| C[C@@H](NCCCc1cccc(C(F)(F)F)c1)c1cccc2ccccc12 | inactive |
| CN(C)Cc1cccc(N=C(c2ccccc2)c2c(O)[nH]c3cc(C(=O)N(C)C)ccc23)c1 | inconclusive [inhibitor, partial curve] |
| Cc1ccccc1-n1c(Cn2nc(-c3cccc(O)c3)c3c(N)ncnc32)nc2cccc(C)c2c1=O | inconclusive [inhibitor, full curve] |
| Cc1cn([C@H]2C=C[C@@H](CO)O2)c(=O)[nH]c1=O | inconclusive [inhibitor, partial curve, poor fit] |
| O=P(O)(O)C(O)(Cn1ccnc1)P(=O)(O)O | inactive |
| Nc1nc(OCc2ccccc2)c2[nH]cnc2n1 | inconclusive [inhibitor, single point] |
| CCCCCCCCCCCC1=C(O)C(=O)C=C(O)C1=O | inconclusive [inhibitor, single point] |
